Source: US10299477B2 (priority 2015, dated 2019)

What was measured:
Magnaporthe grisea = assay type: in vivo; conditions: rice blast, Magnaporthe grisea; 250 ppm spray
Phytophthora infestans = assay type: in vivo; conditions: late blight on tomato, Phytophthora infestans; 250 ppm spray, 5-10 days after inoculation

| Structure (SMILES) | Test A (control value class) (Magnaporthe grisea) | Test F (control value class) (Phytophthora infestans) |
| --- | --- | --- |
| Cn1c(-c2c(F)cccc2F)c(-c2cc(Cl)cc(Cl)c2Cl)ccc1=O [Compound 452] | H (H shows more than 50% of control values) | L (L shows 50% or less of control values) |
| Cn1c(-c2c(F)cccc2F)c(-c2cc(Cl)cc(Cl)c2Cl)cc(Cl)c1=O [Compound 453] | H (H shows more than 50% of control values) | L (L shows 50% or less of control values) |
| O=c1ccc(-c2cc(Cl)cc(Cl)c2Cl)c(-c2c(F)cccc2F)n1CC(F)F [Compound 454] | H (H shows more than 50% of control values) | L (L shows 50% or less of control values) |
| O=c1c(Cl)cc(-c2cc(Cl)cc(Cl)c2Cl)c(-c2c(F)cccc2F)n1CC(F)F [Compound 455] | H (H shows more than 50% of control values) | L (L shows 50% or less of control values) |
| C#CCN1C(=O)CCC(c2cc(OC)ccc2Cl)=C1c1c(F)cccc1F [Compound 456] | H (H shows more than 50% of control values) | L (L shows 50% or less of control values) |
| Cc1cc(-c2cc(F)cc(F)c2F)c(-c2c(F)cccc2F)n(C)c1=O [Compound 457] | H (H shows more than 50% of control values) | L (L shows 50% or less of control values) |
| C#CCn1c(-c2c(F)cccc2F)c(-c2cc(OC)ccc2Cl)ccc1=O [Compound 458] | H (H shows more than 50% of control values) | L (L shows 50% or less of control values) |
| CCn1c(-c2c(F)cccc2F)c(-c2cc(F)cc(F)c2F)cc(C)c1=O [Compound 459] | H (H shows more than 50% of control values) | L (L shows 50% or less of control values) |
| COc1ccc(Cl)c(-c2ccc(=O)n(CC#N)c2-c2c(F)cccc2F)c1 [Compound 460] | H (H shows more than 50% of control values) | L (L shows 50% or less of control values) |
| CCn1c(-c2c(F)cc(F)cc2F)c(-c2cc(F)ccc2Cl)cc(C)c1=O [Compound 461, 5-(2-chloro-5-fluorophenyl)-1-ethyl-3-methyl-6-(2,4,6-trifluorophenyl)pyridine-2(1H)-one] | H (H shows more than 50% of control values) | L (L shows 50% or less of control values) |
| C#CCn1c(-c2c(F)cccc2F)c(-c2cc(OC)ccc2Cl)cc(Cl)c1=O [Compound 462] | H (H shows more than 50% of control values) | L (L shows 50% or less of control values) |
| COc1ccc(Cl)c(-c2cc(Cl)c(=O)n(CC#N)c2-c2c(F)cccc2F)c1 [Compound 463] | H (H shows more than 50% of control values) | L (L shows 50% or less of control values) |
| CCn1c(-c2c(F)cc(F)cc2F)c(-c2cc(F)cc(F)c2F)ccc1=O [Compound 464] | H (H shows more than 50% of control values) | L (L shows 50% or less of control values) |
| CCn1c(-c2c(F)cc(F)cc2F)c(-c2cc(F)cc(F)c2F)cc(Cl)c1=O [Compound 465] | H (H shows more than 50% of control values) | L (L shows 50% or less of control values) |
| Cn1c(-c2c(F)cc(F)cc2F)c(-c2cc(F)cc(F)c2F)ccc1=O [Compound 466] | H (H shows more than 50% of control values) | L (L shows 50% or less of control values) |
| Cn1c(-c2c(F)cc(F)cc2F)c(-c2cc(F)cc(F)c2F)cc(Cl)c1=O [Compound 467] | H (H shows more than 50% of control values) | L (L shows 50% or less of control values) |
| CCn1c(-c2c(F)cc(OC)cc2F)c(-c2cc(F)ccc2F)ccc1=O [Compound 468] | H (H shows more than 50% of control values) | H (H shows more than 50% of control values) |
| CCn1c(-c2c(F)cc(OC)cc2F)c(-c2cc(F)ccc2F)cc(Cl)c1=O [Compound 469] | H (H shows more than 50% of control values) | L (L shows 50% or less of control values) |
| CCn1c(-c2c(F)cccc2F)c(-c2cc(Cl)ccc2Cl)cc(C)c1=O [Compound 470] | H (H shows more than 50% of control values) | L (L shows 50% or less of control values) |
| Cc1cc(-c2cc(Cl)ccc2Cl)c(-c2c(F)cccc2F)n(C)c1=O [Compound 471] | H (H shows more than 50% of control values) | L (L shows 50% or less of control values) |
| CCn1c(-c2c(F)cccc2F)c(-c2cccc(Cl)c2F)ccc1=O [Compound 472] | H (H shows more than 50% of control values) | L (L shows 50% or less of control values) |

| Structure (SMILES) | Test A (control value class) (Magnaporthe grisea) | Test F (control value class) (Phytophthora infestans) |
| --- | --- | --- |
| CCn1c(-c2c(F)cccc2F)c(-c2cccc(Cl)c2F)cc(Cl)c1=O [Compound 473] | H (H shows more than 50% of control values) | L (L shows 50% or less of control values) |
| Cn1c(-c2c(F)cccc2F)c(-c2cccc(Cl)c2F)ccc1=O [Compound 474] | H (H shows more than 50% of control values) | L (L shows 50% or less of control values) |
| Cn1c(-c2c(F)cccc2F)c(-c2cccc(Cl)c2F)cc(Cl)c1=O [Compound 475] | H (H shows more than 50% of control values) | L (L shows 50% or less of control values) |
| CCn1c(-c2c(F)cc(OC)cc2F)c(-c2cc(F)ccc2Cl)cc(Br)c1=O [Compound 476, 3-bromo-5-(2-chloro-5-fluorophenyl)-6-(2,6-difluoro-4-methoxyphenyl)-1-ethylpyridine-2(1H)-one] | H (H shows more than 50% of control values) | L (L shows 50% or less of control values) |
| CCN1C(=O)CCC(c2cc(F)ccc2F)=C1c1c(F)cccc1F [Compound 477] | H (H shows more than 50% of control values) | H (H shows more than 50% of control values) |
| CCn1c(-c2c(F)cccc2F)c(-c2cc(F)ccc2F)ccc1=O [Compound 478] | H (H shows more than 50% of control values) | H (H shows more than 50% of control values) |
| CCn1c(-c2c(F)cc(OC)cc2F)c(-c2cc(F)ccc2Cl)cc(C)c1=O [Compound 479] | H (H shows more than 50% of control values) | L (L shows 50% or less of control values) |
| CN1C(=O)CCC(c2cc(F)ccc2F)=C1c1c(F)cccc1F [Compound 480] | H (H shows more than 50% of control values) | L (L shows 50% or less of control values) |
| CCn1c(-c2c(F)cccc2F)c(-c2cc(F)ccc2F)cc(Cl)c1=O [Compound 481] | H (H shows more than 50% of control values) | L (L shows 50% or less of control values) |
| CCn1c(-c2c(F)cccc2F)c(-c2cc(F)ccc2F)cc(Br)c1=O [Compound 482] | H (H shows more than 50% of control values) | L (L shows 50% or less of control values) |
| Cn1c(-c2c(F)cccc2F)c(-c2cc(F)ccc2F)ccc1=O [Compound 483] | H (H shows more than 50% of control values) | H (H shows more than 50% of control values) |
| Cn1c(-c2c(F)cccc2F)c(-c2cc(F)ccc2F)cc(Cl)c1=O [Compound 484] | H (H shows more than 50% of control values) | L (L shows 50% or less of control values) |
| Cn1c(-c2c(F)cccc2F)c(-c2cc(F)ccc2F)cc(Br)c1=O [Compound 485] | H (H shows more than 50% of control values) | H (H shows more than 50% of control values) |
| CCn1c(-c2c(F)cc(F)cc2F)c(-c2cccc(F)c2Cl)ccc1=O [Compound 486] | H (H shows more than 50% of control values) | H (H shows more than 50% of control values) |
| CCn1c(-c2c(F)cc(F)cc2F)c(-c2cccc(F)c2Cl)cc(Br)c1=O [Compound 487] | H (H shows more than 50% of control values) | L (L shows 50% or less of control values) |
| CCn1c(-c2c(F)cc(F)cc2F)c(-c2cccc(F)c2Cl)cc(Cl)c1=O [Compound 488] | H (H shows more than 50% of control values) | L (L shows 50% or less of control values) |
| CCn1c(-c2c(F)cc(OC)cc2F)c(-c2cccc(F)c2Cl)ccc1=O [Compound 489] | H (H shows more than 50% of control values) | H (H shows more than 50% of control values) |
| CCn1c(-c2c(F)cc(OC)cc2F)c(-c2cccc(F)c2Cl)cc(Cl)c1=O [Compound 490] | H (H shows more than 50% of control values) | L (L shows 50% or less of control values) |
| Cn1c(-c2c(F)cc(F)cc2F)c(-c2cccc(F)c2Cl)ccc1=O [Compound 491] | H (H shows more than 50% of control values) | L (L shows 50% or less of control values) |
| COc1cc(F)c(-c2c(-c3cccc(F)c3Cl)ccc(=O)n2C)c(F)c1 [Compound 492] | H (H shows more than 50% of control values) | L (L shows 50% or less of control values) |
| CCn1c(-c2c(F)cccc2F)c(-c2cccc(Cl)c2F)cc(C)c1=O [Compound 493] | H (H shows more than 50% of control values) | L (L shows 50% or less of control values) |
